Laboratory results published in the supplement of paper PMC8728848.
Some of the results follow.

Assays:
Experiment in all cases: glycan array binding signal (z-score within array); higher = stronger binding
Settings in all cases: glycan notation: IUPAC condensed, linker removed
[1] = target: GlcNAc(b1-6)Gal(b1-4)GlcNAc
Procedure, shortened: (§1)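 From the Consortium for Functional Glycomics database, 3228 arrays were curated, keeping only those whose protein sequence was available. Binding is given as a within-array Z-score averaged across arrays sharing a protein sequence and across linkers. Negative Z-scores can be read as non-binding.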

[2] = target: GlcNAc(b1-6)GalNAc
Procedure, shortened: as §1

[3] = target: GlcNAc3Prop(b1-4)GlcNAc
Procedure, shortened: as §1

[4] = target: GlcNAc6S(b1-3)Gal(b1-4)GlcNAc
Procedure, shortened: as §1

[5] = target: Kdn(a2-3)Gal(b1-3)GalNAc
Procedure, shortened: as §1

[6] = target: Kdn(a2-3)Gal(b1-3)GlcNAc
Procedure, shortened: as §1

[7] = target: Kdn(a2-3)Gal(b1-4)Glc
Procedure, shortened: as §1

[8] = target: Kdn(a2-3)Gal(b1-4)GlcNAc
Procedure, shortened: as §1

[9] = target: Kdn(a2-3)Gal(b1-4)[Fuc(a1-3)]GlcNAc
Procedure, shortened: as §1

[10] = target: Kdn(a2-6)Gal(b1-4)GlcNAc
Procedure, shortened: as §1

[11] = target: Man(a1-2)Man(a1-2)Man(a1-3)Man
Procedure, shortened: as §1

[12] = target: Man(a1-2)Man(a1-2)Man(a1-6)[Man(a1-3)]Man
Procedure, shortened: as §1

[13] = target: Man(a1-2)Man(a1-3)Man
Procedure, shortened: as §1

[14] = target: Man(a1-2)Man(a1-3)[Man(a1-2)Man(a1-6)]Man
Procedure, shortened: as §1

[15] = target: Man(a1-2)Man(a1-3)[Man(a1-2)Man(a1-6)]Man(a1-6)[Man(a1-2)Man(a1-2)Man(a1-3)]Man
Procedure, shortened: as §1

[16] = target: Man(a1-2)Man(a1-3)[Man(a1-2)Man(a1-6)]Man(a1-6)[Man(a1-2)Man(a1-2)Man(a1-3)]Man(b1-4)GlcNAc(b1-4)GlcNAc
Procedure, shortened: as §1

[17] = target: Man(a1-2)Man(a1-3)[Man(a1-6)]Man(a1-6)[Man(a1-2)Man(a1-3)]Man(b1-4)GlcNAc(b1-4)GlcNAc
Procedure, shortened: as §1

[18] = target: Man(a1-2)Man(a1-6)[Man(a1-3)]Man(a1-6)[Man(a1-2)Man(a1-2)Man(a1-3)]Man
Procedure, shortened: as §1

[19] = target: Man(a1-2)Man(a1-6)[Man(a1-3)]Man(a1-6)[Man(a1-2)Man(a1-2)Man(a1-3)]Man(b1-4)GlcNAc(b1-4)GlcNAc
Procedure, shortened: as §1

[20] = target: Man(a1-3)[Man(a1-6)]Man
Procedure, shortened: as §1

[21] = target: Man(a1-3)[Man(a1-6)]Man(a1-6)[Man(a1-2)Man(a1-3)]Man(b1-4)GlcNAc(b1-4)GlcNAc
Procedure, shortened: as §1

[22] = target: Man(a1-3)[Man(a1-6)]Man(a1-6)[Man(a1-3)]Man
Procedure, shortened: as §1

[23] = target: Man(a1-3)[Man(a1-6)]Man(a1-6)[Man(a1-3)]Man(b1-4)GlcNAc(b1-4)GlcNAc
Procedure, shortened: as §1

[24] = target: Man(a1-3)[Man(a1-6)]Man(b1-4)GlcNAc(b1-4)GlcNAc
Procedure, shortened: as §1

[25] = target: Man(a1-3)[Man(a1-6)]Man(b1-4)GlcNAc(b1-4)[Fuc(a1-6)]GlcNAc
Procedure, shortened: as §1

[26] = target: Man(a1-6)Man
Procedure, shortened: as §1

[27] = target: Man(b1-4)GlcNAc
Procedure, shortened: as §1

[28] = target: Neu5Ac(a2-3)Gal
Procedure, shortened: as §1

[29] = target: Neu5Ac(a2-3)Gal(b1-3)GalNAc
Procedure, shortened: as §1

[30] = target: Neu5Ac(a2-3)Gal(b1-3)GalNAc(b1-3)Gal(a1-4)Gal(b1-4)Glc
Procedure, shortened: as §1

[31] = target: Neu5Ac(a2-3)Gal(b1-3)GalNAc(b1-4)[Neu5Ac(a2-3)]Gal(b1-4)Glc
Procedure, shortened: as §1

[32] = target: Neu5Ac(a2-3)Gal(b1-3)GalNAc(b1-4)[Neu5Ac(a2-8)Neu5Ac(a2-3)]Gal(b1-4)Glc
Procedure, shortened: as §1

[33] = target: Neu5Ac(a2-3)Gal(b1-3)GalNAc6S
Procedure, shortened: as §1

[34] = target: Neu5Ac(a2-3)Gal(b1-3)GlcNAc
Procedure, shortened: as §1

[35] = target: Neu5Ac(a2-3)Gal(b1-3)GlcNAc(b1-2)Man(a1-3)[GlcNAc(b1-4)][Neu5Ac(a2-3)Gal(b1-3)GlcNAc(b1-2)Man(a1-6)]Man(b1-4)GlcNAc(b1-4)GlcNAc
Procedure, shortened: as §1

[36] = target: Neu5Ac(a2-3)Gal(b1-3)GlcNAc(b1-3)Gal(b1-3)GlcNAc
Procedure, shortened: as §1

[37] = target: Neu5Ac(a2-3)Gal(b1-3)GlcNAc(b1-3)Gal(b1-4)GlcNAc
Procedure, shortened: as §1

B1: ArathEULS3 (Arabidopsis thaliana), Q945P1 (protein)
chain: MEHHHQHHRHHQRDDGEDDRQSFGVPPPHVDAPPQPHGLYQSQPHFDPYAPTPQAPAPYRSETQFEPHAPPPYRSEPYFETPAPPPSFGHVSHVGHQSPNESYPPEHHRYGGYQQPSNSLLESHGDHSGVTHVAHHSSNQPQSSSGVYHKPDENRLPDNLAGLAGRATVKVYSKAEPNYNLTIRDGKVILAPADPSDEAQHWYKDEKYSTKVKDADGHPCFALVNKATGEAMKHSVGATHPVHLIRYVPDKLDESVLWTESKDFGDGYRTIRMVNNTRLNVDAYHGDSKSGGVRDGTTIVLWDWNKGDNQLWKIFPFILEQKLISEEDLNSAVDHHHHHH
[1]
  glycan array binding signal (z-score): -0.338
[2]
  glycan array binding signal (z-score): -0.333
[3]
  glycan array binding signal (z-score): -0.242
[4]
  glycan array binding signal (z-score): -0.169
[5]
  glycan array binding signal (z-score): -0.099
[6]
  glycan array binding signal (z-score): -0.273
[7]
  glycan array binding signal (z-score): 0.388
[8]
  glycan array binding signal (z-score): -0.165
[9]
  glycan array binding signal (z-score): -0.175
[10]
  glycan array binding signal (z-score): -0.168
[11]
  glycan array binding signal (z-score): -0.223
[12]
  glycan array binding signal (z-score): -0.312
[13]
  glycan array binding signal (z-score): -0.279
[14]
  glycan array binding signal (z-score): -0.048
[15]
  glycan array binding signal (z-score): 0.363
[16]
  glycan array binding signal (z-score): -0.229
[17]
  glycan array binding signal (z-score): -0.205
[18]
  glycan array binding signal (z-score): 0.126
[19]
  glycan array binding signal (z-score): -0.159
[20]
  glycan array binding signal (z-score): -0.26
[21]
  glycan array binding signal (z-score): -0.147
[22]
  glycan array binding signal (z-score): -0.266
[23]
  glycan array binding signal (z-score): -0.223
[24]
  glycan array binding signal (z-score): -0.078
[25]
  glycan array binding signal (z-score): 0.401
[26]
  glycan array binding signal (z-score): -0.048
[27]
  glycan array binding signal (z-score): -0.352
[28]
  glycan array binding signal (z-score): -0.328
[29]
  glycan array binding signal (z-score): -0.147
[30]
  glycan array binding signal (z-score): -0.261
[31]
  glycan array binding signal (z-score): -0.323
[32]
  glycan array binding signal (z-score): -0.117
[33]
  glycan array binding signal (z-score): -0.154
[34]
  glycan array binding signal (z-score): -0.07
[35]
  glycan array binding signal (z-score): 0.194
[36]
  glycan array binding signal (z-score): -0.394
[37]
  glycan array binding signal (z-score): -0.22
